Results as given in ChEMBL document CHEMBL1137992, “Long hydrocarbon chain keto diols and diacids that favorably alter lipid disorders in vivo” (J Med Chem, 2004).
This continues a long series; more values of the same kind are listed elsewhere.

Columns and labels:
Assay type in all cases: functional
Rattus norvegicus [1] = test: Amount of glucose in obese Zucker rats at pre-treatment at a dose of 30 mg/kg/day
Summary of the method: (§1)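 Female Zucker fatty rats [Crl:(Zuc)-faBR], 10–12 weeks old (400–500 g), gavaged daily with vehicle (20% EtOH/80% PEG-200, 0.25% of body weight) or compound. After a 6-h fast, blood glucose was read by glucometer from tail-prick blood of unanesthetized rats before dosing and after 1 and 2 weeks. Values are mean ± SEM.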

Rattus norvegicus [2] = test: Amount of non-HDL-cholesterol in obese Zucker rats at pre-treatment at a dose of 100 mg/kg/day
Rattus norvegicus [3] = test: Amount of triglycerides in obese Zucker rats after 2 weeks of treatment at a dose of 0 mg/kg/day
Summary of the method: (§2)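 Female Zucker fatty rats [Crl:(Zuc)-faBR], 10–12 weeks old (400–500 g), dosed once daily by oral gavage in 20% EtOH/80% PEG-200 for up to 14 days. After a 6-h fast, serum was taken pre-dose, at day 7 (orbital venous plexus, O2/CO2 anaesthesia) and at day 14 (cardiac puncture), stored at −80 °C, and assayed on a Hitachi 912 automatic analyzer. Mean ± SEM.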

Rattus norvegicus [4] = test: Amount of HDL-cholesterol in obese Zucker rats after 1 week of treatment at a dose of 30 mg/kg/day
Rattus norvegicus [5] = test: Amount of HDL-cholesterol in obese Zucker rats after 2 weeks of treatment at a dose of 0 mg/kg/day
Rattus norvegicus [6] = test: Amount of nonesterified fatty acids in obese Zucker rats after 2 weeks of treatment at a dose of 100 mg/kg/day; summary of the method: as §2
Rattus norvegicus [7] = test: Percent increase in HDL-cholesterol in obese Zucker rats after 2 weeks of treatment at a dose of 100 mg/kg/day
Summary of the method: (§3)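 Female Zucker fatty rats [Crl:(Zuc)-faBR], 10–12 weeks, 400–500 g, acclimated 7 days on chow. Compound or vehicle (20% EtOH/80% PEG-200) given by daily oral gavage for 2 weeks, 0–100 mg/kg/day. After a 6 h fast, blood was taken before dosing, at 1 wk and at 2 wk. Serum lipids, NEFA and insulin (ELISA) were measured; glucose by glucometer. HDL/non-HDL-C came from Superose 6 gel-filtration profiles. Values are % change from pretreatment, mean ± SEM.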

Rattus norvegicus [8] = test: Amount of nonesterified fatty acids in obese Zucker rats after 1 week of treatment at a dose of 3 mg/kg/day
Rattus norvegicus [9] = test: Percent decrease in HDL-cholesterol in obese Zucker rats after 1 week of treatment at a dose of 0 mg/kg/day; set-up: scale not given: the % may be the effect or the level left
Rattus norvegicus [10] = test: Amount of nonesterified fatty acids in obese Zucker rats after 1 week of treatment at a dose of 10 mg/kg/day; summary of the method: as §2
Rattus norvegicus [11] = test: Amount of nonesterified fatty acids in obese Zucker rats after 2 weeks of treatment at a dose of 30 mg/kg/day; summary of the method: as §2
Rattus norvegicus [12] = test: Amount of HDL-cholesterol in obese Zucker rats at pre-treatment at a dose of 0 mg/kg/day
Summary of the method: (§4)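 Female Zucker fatty rats [Crl:(Zuc)-faBR], 10–12 weeks old (400–500 g), dosed once daily by oral gavage in 20% EtOH/80% PEG-200 (dose volume 0.25% of body weight). Rats were fasted 6 h and bled before dosing and at day 7 (orbital plexus), and at day 14 (cardiac puncture). Serum cholesterol fractions came from Superose 6 gel-filtration lipoprotein profiles (% peak area × serum total cholesterol). Values are mean ± SEM.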

Rattus norvegicus [13] = test: Amount of HDL-cholesterol in obese Zucker rats at pre-treatment at a dose of 3 mg/kg/day
Rattus norvegicus [14] = test: Amount of triglycerides in obese Zucker rats at pre-treatment at a dose of 100 mg/kg/day; summary of the method: as §2
Rattus norvegicus [15] = test: Amount of non-HDL-cholesterol in obese Zucker rats at pre-treatment at a dose of 10 mg/kg/day
Summary of the method: (§5)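 Female obese Zucker fatty rats [Crl:(Zuc)-faBR], 10–12 weeks old (400–500 g), on chow. Compound in 20% EtOH/80% PEG-200 (v/v) given by daily oral gavage. After a 6-h fast, serum was taken before dosing and at 7 days (orbital plexus), and at 14 days (cardiac puncture). Lipoprotein cholesterol came from Superose 6HR gel-filtration profiles × serum total cholesterol. Mean ± SEM.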

Rattus norvegicus [16] = test: Percent increase in insulin in obese Zucker rats after 1 week of treatment at a dose of 30 mg/kg/day
Rattus norvegicus [17] = test: Amount of non-HDL-cholesterol in obese Zucker rats after 2 weeks of treatment at a dose of 3 mg/kg/day; summary of the method: as §5
Rattus norvegicus [18] = test: Percent decrease in glucose in obese Zucker rats after 2 weeks of treatment at a dose of 100 mg/kg/day; set-up: scale not given: the % may be the effect or the level left
Rattus norvegicus [19] = test: Percent decrease in insulin in obese Zucker rats after 2 weeks of treatment at a dose of 100 mg/kg/day; set-up: scale not given: the % may be the effect or the level left
Rattus norvegicus [20] = test: Amount of non-HDL-cholesterol in obese Zucker rats after 1 week of treatment at a dose of 100 mg/kg/day; summary of the method: as §4
Rattus norvegicus [21] = test: Amount of non-HDL-cholesterol in obese Zucker rats after 2 weeks of treatment at a dose of 10 mg/kg/day; summary of the method: as §4
Rattus norvegicus [22] = test: Amount of glucose in obese Zucker rats after 1 week of treatment at a dose of 30 mg/kg/day; summary of the method: as §1
Rattus norvegicus [23] = test: Percent decrease in nonesterified fatty acids in obese Zucker rats after 1 week of treatment at a dose of 30 mg/kg/day; set-up: scale not given: the % may be the effect or the level left; summary of the method: as §3
Rattus norvegicus [24] = test: Percent decrease in non-HDL-cholesterol in obese Zucker rats after 1 week of treatment at a dose of 100 mg/kg/day; set-up: scale not given: the % may be the effect or the level left; summary of the method: as §3
Rattus norvegicus [25] = test: Amount of glucose in obese Zucker rats after 2 weeks of treatment at a dose of 10 mg/kg/day; summary of the method: as §1
Rattus norvegicus [26] = test: Percent decrease in non-HDL-cholesterol in obese Zucker rats after 1 week of treatment at a dose of 10 mg/kg/day; set-up: scale not given: the % may be the effect or the level left

Compound	Activity (Rattus norvegicus [1]) [mg/dL]	Activity (Rattus norvegicus [2]) [mg/dL]	Activity (Rattus norvegicus [3]) [mg/dL]	Activity (Rattus norvegicus [4]) [mg/dL]	Activity (Rattus norvegicus [5]) [mg/dL]	Activity (Rattus norvegicus [6]) [mg/dL]	Activity (Rattus norvegicus [7]) [%]	Activity (Rattus norvegicus [8]) [mg/dL]	Activity (Rattus norvegicus [9]) [%]	Activity (Rattus norvegicus [10]) [mg/dL]	Activity (Rattus norvegicus [11]) [mg/dL]	Activity (Rattus norvegicus [12]) [mg/dL]	Activity (Rattus norvegicus [13]) [mg/dL]	Activity (Rattus norvegicus [14]) [mg/dL]	further results
CC(C)(CO)CCCCC(=O)CCCCC(C)(C)CO	111	31	1099	60	41	0.94	76	1.2	-19	0.98	1.2	48	48	1051	
CC(C)(CCCCCC(=O)CCCCCC(C)(C)C(=O)O)C(=O)O	119	26	1189	159	69	0.66	113	1.1	-13	1	0.66	76	77	937	Activity (Rattus norvegicus [15]): 22 mg/dL; Activity (Rattus norvegicus [16]): -35%; Activity (Rattus norvegicus [17]): 25 mg/dL; Activity (Rattus norvegicus [18]): -10%; Activity (Rattus norvegicus [19]): -50%; Activity (Rattus norvegicus [20]): 2 mg/dL; Activity (Rattus norvegicus [21]): 34 mg/dL; Activity (Rattus norvegicus [22]): 108 mg/dL; Activity (Rattus norvegicus [23]): -32%; Activity (Rattus norvegicus [24]): -92%; Activity (Rattus norvegicus [25]): 125 mg/dL
CC(C)(CCCCC(=O)CCCCC(C)(C)C(=O)O)C(=O)O		31		53	38			1.2					31		Activity (Rattus norvegicus [26]): -35%
